# Data taken from PubChem BioAssay AID1508623 (National Center for Advancing Translational Sciences (NCATS), 2021).
# Out of some 48,000 compounds screened, about 450 (0.94%) were called active. Inconclusive results (about 19%) are left out. Calls follow the shape of the dose curve; as a rule, active = well fitted inhibition curve with a large enough effect; inconclusive = small, poorly fitted or top-dose-only effect; inactive = no such curve, though single readings can be large or run the other way. This is one part of the list.
# Test: Primary qHTS for Identification of Small Molecule Inhibitors of Huntingtin Promoter Activity; also: nearly all actives have a fitted effect of over 50% in size
# Details: HEK293 HTT promoter firefly luciferase reporter (activity 0% = vehicle and -100% = no light), 24 h; series mostly up to 57.5 µM; activity change, negative = inhibition: at the top concentration
# How it was run: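 HEK293 Fluc reporter, 2,500 cells/well, 24 h pre-culture; cpds up to 57.5 uM final, 24 h 37 degrees C; Dual-Glo, 10 min RT; normalized vehicle = 0%, zero RLU = -100%.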
# Potency is read from the fitted curve at half-maximal effect.
Structure (SMILES),"activity change, negative = inhibition",Potency
COc1ccc(S(=O)(=O)NC2(C(F)(F)F)NC(=O)N(CCc3ccc(OC)c(OC)c3)C2=O)cc1 (stereo not drawn),inactive: -8.15%,
CS(=O)(=O)NCCc1csc2nc(-c3ccccc3)nn12,inactive: -0.177%,
Cc1cc(Nc2ccccc2Cl)n2nc(-c3ccco3)nc2n1,inactive: -19.1%,
Cc1ccc2onc(CC(=O)Nc3cc(F)ccc3F)c2c1,inactive: 28%,
Cc1ccc(-c2cc(C(F)(F)F)n3nc(C(=O)Nc4sc5c(c4C#N)CCC(C)C5)cc3n2)cc1 (stereo not drawn),inactive: -4.31% [at 11.5 µM],
O=C(CSc1nnc2scc(-c3ccc(Cl)cc3)n12)Nc1ccccc1F,inactive: -20.8%,
CCOc1cccc(CC(=O)N2CCc3c([nH]c4ccccc34)C2c2ccc(C)cc2)c1OCC (stereo not drawn),inactive: -24%,
COc1ccc(C(=O)Nc2ccc3c(c2)N(C2CCCC2)C(=O)c2ccccc2S3)cc1OC,inactive: -22.6%,
COc1cc(C(=O)Nc2ccc(Cl)c(-c3nc4ncccc4o3)c2)cc(OC)c1OC,inactive: 3.72%,
Cc1ccccc1CNC(=O)CCCn1c(=O)c2cccn2c2ccccc21,inactive: 4.38%,
Cc1cccc2c1-c1sc(C(=O)N3CCN(c4ccc(F)cc4)CC3)cc1CO2,inactive: 5.94%,
COCCNC(=O)CN1C(=O)COc2ccc(S(=O)(=O)N3CCOCC3)cc21,inactive: -8.64%,
CCc1ccccc1N(C)C(=O)Nc1cn(CC(C)C)c(=O)c2ccccc12,inactive: -9.87%,
C=Cc1ccc(CSc2nc(-c3ccccc3C)nc3c2Cc2c(CO)cnc(C)c2O3)cc1,inactive: -11.9%,
CCn1cc(C(=O)OCC(=O)Nc2cccc(Cl)c2C)c(=O)c2ccc(C)nc21,inactive: -6.72%,
CCOc1ccc(CNC(=O)CCn2c(=O)c3cccn3c3cccnc32)cc1,inactive: 0.75%,
O=C(CSc1nc(=O)n(Cc2ccco2)c2c1CCC2)NCc1ccccc1Cl,inactive: 3.61%,
N#Cc1ccc(NC(=O)COCc2cc(-c3ccc4c(c3)OCO4)on2)cc1,inactive: -9.17%,
COC(=O)c1scc(-c2ccc(C)cc2)c1S(=O)(=O)Nc1ccc(OC(F)(F)F)cc1,inactive: 0.0122%,
CCOc1ccc(N2CC(NC(=O)c3ccc(S(=O)(=O)N4CCOCC4)cc3)CC2=O)cc1 (stereo not drawn),inactive: -17.5%,
Cc1cc(=O)n2nc(N3CCC(C(=O)NCCCOC(C)C)CC3)sc2n1,inactive: -13.1%,
O=C(CSc1nnc(CNC(=O)c2ccccc2)n1-c1ccc(F)cc1)Nc1ccccc1F,inactive: -10.1%,
NS(=O)(=O)c1cc2c(cc1Cl)NC(CC1CCCC1)NS2(=O)=O (stereo not drawn),inactive: 1.28%,
O=C(CC1NCCNC1=O)Nc1ccc(F)c(Cl)c1 (stereo not drawn),inactive: 11.8%,
CCCCOc1ccc(C(=O)Nc2sc3c(c2C(=O)OCC)CCCCC3)cc1,inactive: -5.02%,

Structure (SMILES),"activity change, negative = inhibition",Potency
COc1ccc(Nc2ncc(C(=O)Nc3ccc(F)cc3F)c3ccccc23)cc1,inactive: -17.7%,
CCOCCCn1c(SCC(=O)Nc2ccc(F)cc2)nc2c(sc3ccccc32)c1=O,inactive: -13%,
CCC(C(=O)Nc1cc(-c2cn3cccnc3n2)ccc1C)c1ccccc1 (stereo not drawn),inactive: 7.86%,
COc1ccccc1N1CCN(S(=O)(=O)c2ccc3c(c2)CCCN3C(C)=O)CC1,inactive: -27%,
CC(C)(C)NCC(O)c1cc(O)cc(O)c1 (stereo not drawn),inactive: -0.878%,
O=C(c1ccc2c(c1)N(Cc1ccccc1Cl)C(=O)c1ccccc1S2)N1CCCC1,inactive: -17.3%,
Cc1ccccc1CNC(=O)CN1CCSc2ccccc21,inactive: 3.56%,
Nc1nc2nc(-c3ccccc3)cc(=O)n2[nH]1,inactive: -2.37%,
COc1ccc(NC(=O)CN2CCCN(Cc3ccccc3)S2(=O)=O)cc1,inactive: 2.46%,
Cc1ccc(NC(=O)C2CCN(S(=O)(=O)c3ccc4c(c3)CCCC(=O)N4)CC2)c(Br)c1,inactive: -28.1%,
Fc1ccc(CNc2nc(-c3ccc(Cl)cc3)cc(C(F)(F)F)n2)cc1,inactive: -28.9%,
Cc1cccc(NS(=O)(=O)c2ccc3c(c2)n(C)c(=O)n3C)c1C,inactive: -23.5%,
CC[N+](CC)(CC)CCOc1cccc(OCC[N+](CC)(CC)CC)c1OCC[N+](CC)(CC)CC,inactive,
O=c1oc2ccccc2cc1-c1nc(-c2cccc(Cl)c2)cs1,inactive: -17.4%,
CCN(CC)C(=O)Cn1cc(SCC(=O)Nc2cc(OC)ccc2OC)c2ccccc21,inactive: -26.8%,
Cc1ccc(Cl)cc1N1CCN(C(=O)c2sc3nc4n(c(=O)c3c2C)CCC4)CC1,inactive: -0.347%,
CN(C)CCNC(=O)c1ccc2nc(Cc3ccccc3)oc2c1,inactive: -3%,
COc1ccc(Cl)cc1NC(=O)CSc1cc(C)[nH]c(=O)n1,inactive: -13.8%,
Cc1cccn2c(=O)cc(CSc3nnc(NC(=O)C(C)C)s3)nc12,inactive: -7.78%,
CCC(CC)C(=O)Nc1ccc2nc(SCC(=O)N3CCOCC3)sc2c1,inactive: -19.5%,
Cc1ccc(CSc2nc3ccc(NC(=O)CC(C)C)cc3s2)cc1,inactive: -11%,
CCOC(=O)c1noc2ncn(Cc3ccc([N+](=O)[O-])cc3)c(=O)c12,inactive: 5.75%,
COc1ccc(C(=O)NCC(c2ccc(N(C)C)cc2)N2CCOCC2)cc1 (stereo not drawn),inactive: -10.7%,
COc1ccc(NC(=O)CSC2=Nc3ccccc3C3=NC(CCC(=O)NC4CCCCC4)C(=O)N23)cc1Cl (stereo not drawn),inactive: -9.26%,
COc1ccc(-c2noc(-c3nnn(-c4ccc(C)cc4C)c3C)n2)cc1,inactive: 12%,

Structure (SMILES),"activity change, negative = inhibition",Potency
COc1ccc(S(=O)(=O)c2cn(C)c3cc(N4CCCCCC4)c(F)cc3c2=O)cc1,inactive: -2.04%,
Cc1ccc(-n2nc(CO)c(C(=O)NCc3cccnc3)n2)cc1C,inactive: -16.9%,
O=C(Nc1cc(F)ccc1F)C1CCN(C(=O)c2cnn(-c3ccccc3)c2-n2cccc2)CC1,inactive: -27.8%,
Cc1ccc(NC(=O)CSc2nncn2C)c(C)c1,inactive: 11.2%,
COc1ccc(Cl)c2sc(NC(=O)c3ccc(S(=O)(=O)N4CCCC4)cc3)nc12,inactive: 3.83%,
COc1ccccc1NC(=O)CSCc1cc(=O)c2cccc(Cl)c2[nH]1,inactive: -16.2%,
COc1ccc(OC)c(C2CC(=O)Nc3c2c(=O)n(C)c2ncnn32)c1 (stereo not drawn),inactive: -1.77%,
NCc1ccc(S(N)(=O)=O)cc1,inactive: -4.47%,
CCc1ccc2occ(CC(=O)Nc3c(C(=O)c4ccccc4)oc4ccccc34)c2c1,inactive: -11.4%,
CCN1C(=O)c2ccccc2Sc2ccc(NC(=O)Nc3cc(C)cc(C)c3)cc21,,active: 20 µM
Cc1ccc(CNC(=O)c2cc3sc(Cl)cc3n2C)cc1,inactive: -29.7%,
Cc1ccc2nc(-c3ccc(Cl)c(NC(=O)COc4ccc([N+](=O)[O-])cc4)c3)oc2c1,inactive: -0.834%,
O=C(Cn1c(=O)n(-c2ccccc2)c(=O)c2c3c(sc21)CCC3)c1ccc(Br)cc1,inactive: -8.73%,
CC(C)CCNC(=O)CCCn1c(=O)c2cccn2c2ccccc21,inactive: 7.31%,
COc1cccc(NC(=O)c2cnc(SCC(=O)N3CCCc4ccccc43)n(C)c2=O)c1,inactive: -20.3%,
CCN(C(=O)c1cc2c(=O)oc3ccccc3c2s1)c1ccccc1F,inactive: -4.06%,
Cc1noc(-c2ccc(-c3noc(-c4ccc(Cl)cc4)n3)cc2)n1,inactive: 3.65%,
Cc1ccc(C)c(CN2CCCN(Cc3ccccc3C)S2(=O)=O)c1,inactive: -5.06%,
Cc1cc(C)cc(NC(=O)CN2C(=O)c3ccccc3Sc3ccc(C(=O)N4CCCC4)cc32)c1,inactive: -27.2%,
O=C(CN1C(=O)CCc2cc(Br)ccc21)Nc1ccc(OC(F)(F)F)cc1,inactive: -17.6%,
CCOC(=O)c1ccc(Nc2c(-c3ccc(N(C)C)cc3)nc3nc[nH]n23)cc1,inactive: -3.28%,
COc1cccc(CNC(=O)c2nn(C)c3c2CSc2ccccc2-3)c1,inactive: -15%,
COc1ccc(NC(=O)c2cnc3cc(C)ccn3c2=O)c(OC)c1,inactive: -6.09%,
COc1ccc(Cn2c(=O)n(-c3ccc(C)cc3)c(=O)c3c2c2cc(C)ccc2n3C)cc1,inactive: -3.41%,
COc1ccc(C)cc1NC(=O)Cn1nc(N2CCN(c3ccccc3OC)CC2)ccc1=O,inactive: -24.4%,

Structure (SMILES),"activity change, negative = inhibition",Potency
COc1ccccc1Cc1nc2ccccc2nc1SCC(=O)NCc1ccc(C)cc1,inactive: -5.85%,
Cc1noc(C)c1S(=O)(=O)N(CC(=O)NCc1ccccc1)c1ccc(C(C)C)cc1,inactive: -20.2%,
O=C(COCc1cc(-c2ccco2)on1)Nc1cc(Cl)ccc1O,inactive: -26.2%,
COc1ccc(-c2nc(SCC(=O)NC3CCCC3)c(-c3ccc(F)cc3)[nH]2)cc1OC,inactive: -12.7%,
O=C(Nc1ccc2oc(-c3cccnc3)nc2c1)c1ccccc1F,inactive: -26.8% [at 11.5 µM],
CC(=C(CCOC(=O)C(C)C)SSC(CCOC(=O)C(C)C)=C(C)N(C=O)Cc1cnc(C)nc1N)N(C=O)Cc1cnc(C)nc1N,inactive: 7.89%,
COCCNC(=O)CCn1nc(-c2ccc(Cl)cc2)c2ccccc2c1=O,inactive: -17.1% [at 11.5 µM],
COc1ccc(CC(=O)N2CCc3c([nH]c4ccccc34)C2c2ccc(SC)cc2)cc1 (stereo not drawn),inactive: -25.4%,
CC1CCN(C(c2ccc(F)cc2)c2sc3nc(-c4ccco4)nn3c2O)CC1 (stereo not drawn),inactive: 0%,
COc1ccc(C(=O)N2CCN(C(=O)COc3ccccc3)CC2)cc1OC,inactive: -4.46%,
O=C(c1ccc2c(c1)N(Cc1ccccc1)C(=O)c1ccccc1S2(=O)=O)N1CCOCC1,inactive: -6.14%,
COc1ccc(NC(=O)C(NC(=O)/C=C\c2ccc3c(c2)OCO3)c2ccc(C)cc2)cc1 (stereo not drawn),inactive: -23.2%,
CC/C(=C(\c1ccccc1)c1ccc(OCCN(C)C)cc1)c1ccccc1,inactive: -16.4%,
COc1ccc(-c2nc3n(n2)C(c2ccc(O)cc2)C(C(=O)Nc2cccnc2)=C(C)N3)cc1OC (stereo not drawn),inactive: -11%,
O=C(Nc1cccc(Br)c1)c1cc(S(=O)(=O)N2CCCCC2)c[nH]1,inactive: -23%,
Cc1cc(S(=O)(=O)Nc2cc3c(cc2N2CCOCC2)n(C)c(=O)c(=O)n3C)ccc1F,inactive: -7.72%,
CCOc1ccc(CCNC(=O)NCc2noc3ccc(C)cc23)cc1,inactive: -17.6%,
CCOCCc1nn2c(=O)cc(COC(=O)c3ccc(NC(=O)c4cccs4)cc3)nc2s1,inactive: -4.98%,
CCCNC(=O)c1ccc(Cn2c(SCC(=O)NC(C)C)nc3ccccc3c2=O)cc1,inactive: -1.55%,
COc1ccccc1CNc1nccn(-c2ccc(F)cc2)c1=O,inactive: 3.26%,
CCCn1c2ccccc2c2cnn(CC(=O)NCC3CCN(Cc4ccccc4C)CC3)c(=O)c21,inactive: -12.5%,
COC(=O)CN1C(=O)C(O)(c2c(C)[nH]c3ccccc23)c2ccccc21 (stereo not drawn),inactive: -13.5%,
COc1ccc(C(=O)Nc2nc(-c3ccc(Br)cc3)ns2)cc1,inactive: -18.8%,
